Where “and” joins values, the source holds several entries; their conditions need not be identical. Equal values may be shown once. The source gives many values for each of these; only a part stands here.
Tested on: transgenic soybean cv Jake
Assay: Soybean greenhouse spray test, clones from T0 individuals, injury 0-9 point scale 1 week after treatment (Table 7A)
Format: in vivo, Glycine max
Protocol: Soybean cv Jake was transformed as previously described by Siminszky et al., Phytochem Rev. 5:445-458 (2006). After regeneration, transformants were transplanted to soil in small pots, placed in growth chambers (16 hr day/8 hr night; 25° C. day/23° C. night; 65% relative humidity; 130-150 microE m-2 s-1) and subsequently tested for the presence of the T-DNA via Taqman analysis. After a few weeks, healthy, transgenic positive, single copy events were transplanted to larger pots and allowed to grow in the growth chamber. An optimal shoot for cutting was about 3-4 inches tall, with at least two nodes present. Each cutting was taken from the original transformant (mother plant) and dipped into rooting hormone powder (indole-3-butyric acid, IBA). The cutting was then placed in oasis wedges inside a bio-dome. The mother plant was taken to maturity in the greenhouse and harvested for seed. Wild type cuttings were also taken simultaneously to serve as negative controls. The cuttings were kept in the bio-dome for 5-7 days and then transplanted to 3 inch pots and then acclimated in the growth chamber for two more days. […] Other herbicides, such as AHAS (ALS—Acetolactate Synthase) inhibiting herbicides were also tested in a similar fashion for confirming cross resistance to other modes of action: Tritosulfuron, Florasulam, Metsulfuron, Rimsulfuron. Herbicide injury evaluations were taken at 2, 7, 14 and 21 days after treatment.
• 0 No Injury • 1 Minimal injury, only a few patches of leaf injury or chlorosis. • 2 Minimal injury with slightly stronger chlorosis. Overall growth points remain undamaged. • 3 Slightly stronger injury on secondary leaf tissue, but primary leaf and growth points are still undamaged. • 4 Overall plant morphology is slightly different, some chlorosis and necrosis in secondary growth points and leaf tissue. Stems are intact. Regrowth is highly probable within 1 week. • 5 Overall plant morphology is clearly different, some chlorosis and necrosis on a few leaves and growth points, but primary growth point is intact. Stem tissue is still green. Regrowth is highly probably within 1 week. • 6 Strong injury can be seen on the new leaflet growth. Plant has a high probability to survive only through regrowth at different growth points. Most of the leaves are chlorotic/necrotic but stem tissue is still green. May have regrowth but with noticeable injured appearance. • 7 Most of the active growth points are necrotic. There may be a single growth point that could survive and may be partially chlorotic or green and partially necrotic. Two leaves may still be chlorotic with some green; the rest of the plant including stem is necrotic. • 8 Plant will likely die, and all growth points are necrotic. One leaf may still be chlorotic with some green. The remainder of the plant is necrotic. • 9 Plant is dead. • * Not tested

CC(C)N(C)S(=O)(=O)NC(=O)c1cc(-n2c(=O)cc(C(F)(F)F)n(C)c2=O)c(F)cc1Cl [Saflufenacil, saflufenacil]
injury (0-9 point scale) 1 week after treatment (Saflufenacil 12.5 g ai/ha, GOI AmtuPPX2L_F420L): 1 and 0 and 3 | injury (0-9 point scale) 1 week after treatment (Saflufenacil 12.5 g ai/ha, GOI AmtuPPX2L_F420L stacked with Bradi_1g07930.1_Zm): 4 | injury (0-9 point scale) 1 week after treatment (Saflufenacil 12.5 g ai/ha, GOI AmtuPPX2L_F420V stacked with Bradi_1g07930.1_Zm): 0 (2×) and 2 | injury (0-9 point scale) 1 week after treatment (Saflufenacil 12.5 g ai/ha, GOI AmtuPPX2L_L397D_F420V): 1 and 0 | injury (0-9 point scale) 1 week after treatment (Saflufenacil 12.5 g ai/ha, GOI AmtuPPX2L_L397D_F420V stacked with Bradi_1g07930.1_Zm): 1 | injury (0-9 point scale) 1 week after treatment (Saflufenacil 12.5 g ai/ha, GOI Bradi_1g07930.1_Zm): 5 | injury (0-9 point scale) 1 week after treatment (Saflufenacil 12.5 g ai/ha, GOI wild type): 9 | injury (0-9 point scale) 1 week after treatment (Saflufenacil 25 g ai/ha, GOI AmtuPPX2L L397D stacked with Bradi_1g07930.1_Zm): 1 (4×) and 6 and 5 and 2 and 0 (2×) and 4 | injury (0-9 point scale) 1 week after treatment (Saflufenacil 25 g ai/ha, GOI AmtuPPX2L_F420L): 9 and 0 and 2 (4×) and 1 | injury (0-9 point scale) 1 week after treatment (Saflufenacil 25 g ai/ha, GOI AmtuPPX2L_F420L stacked with Bradi_1g07930.1_Zm): 4 and 1 | injury (0-9 point scale) 1 week after treatment (Saflufenacil 25 g ai/ha, GOI AmtuPPX2L_F420V stacked with Bradi_1g07930.1_Zm): 1 (2×) and 0 (7×) and 9 | injury (0-9 point scale) 1 week after treatment (Saflufenacil 25 g ai/ha, GOI AmtuPPX2L_L397D): 7 and 2 (3×) and 9 and 5 and 3 | injury (0-9 point scale) 1 week after treatment (Saflufenacil 25 g ai/ha, GOI AmtuPPX2L_L397D_F420V): 3 and 1 and 0 and 4 and 6 and 5 (3×) and 8 | injury (0-9 point scale) 1 week after treatment (Saflufenacil 25 g ai/ha, GOI AmtuPPX2L_L397D_F420V stacked with Bradi_1g07930.1_Zm): 2 (2×) and 3 and 0 (2×) and 4 (2×) and 5 and 6 and 8 | injury (0-9 point scale) 1 week after treatment (Saflufenacil 25 g ai/ha, GOI AmtuPPX2L_R128A_F420L): 4 and 0 | injury (0-9 point scale) 1 week after treatment (Saflufenacil 25 g ai/ha, GOI Bradi_1g07930.1_Zm): 9 and 4 | injury (0-9 point scale) 1 week after treatment (Saflufenacil 25 g ai/ha, GOI wild type): 9 | injury (0-9 point scale) 1 week after treatment (Saflufenacil 50 g ai/ha, GOI AmtuPPX2L L397D stacked with Bradi_1g07930.1_Zm): 2 (4×) and 9 and 6 and 1 (3×) and 7 | injury (0-9 point scale) 1 week after treatment (Saflufenacil 50 g ai/ha, GOI AmtuPPX2L_F420L): 9 and 0 and 2 and 1 and 3 (2×) and 5 | injury (0-9 point scale) 1 week after treatment (Saflufenacil 50 g ai/ha, GOI AmtuPPX2L_F420L stacked with Bradi_1g07930.1_Zm): 3 | injury (0-9 point scale) 1 week after treatment (Saflufenacil 50 g ai/ha, GOI AmtuPPX2L_F420V): 6 | injury (0-9 point scale) 1 week after treatment (Saflufenacil 50 g ai/ha, GOI AmtuPPX2L_F420V stacked with Bradi_1g07930.1_Zm): 0 (4×) and 1 (4×) and 9 and 2 | injury (0-9 point scale) 1 week after treatment (Saflufenacil 50 g ai/ha, GOI AmtuPPX2L_L397D): 9 (2×) and 4 (2×) and 3 and 6 and 5 | injury (0-9 point scale) 1 week after treatment (Saflufenacil 50 g ai/ha, GOI AmtuPPX2L_L397D_F420V): 6 (2×) and 2 and 1 and 7 and 4 (2×) and 5 and 9 | injury (0-9 point scale) 1 week after treatment (Saflufenacil 50 g ai/ha, GOI AmtuPPX2L_L397D_F420V stacked with Bradi_1g07930.1_Zm): 1 (2×) and 3 (4×) and 0 and 5 (2×) and 4 and 9 | injury (0-9 point scale) 1 week after treatment (Saflufenacil 50 g ai/ha, GOI AmtuPPX2L_R128A_F420L): 6 (2×) and 1 and 3 | injury (0-9 point scale) 1 week after treatment (Saflufenacil 50 g ai/ha, GOI Bradi_1g07930.1_Zm): 8 and 9 | injury (0-9 point scale) 1 week after treatment (Saflufenacil 50 g ai/ha, GOI wild type): 9 (2×) and 8 | injury (0-9 point scale) 1 week after treatment (Saflufenacil 100 g ai/ha, GOI AmtuPPX2L L397D stacked with Bradi_1g07930.1_Zm): 2 (2×) and 9 (2×) and 7 and 5 and 3 (2×) and 1 (2×) | injury (0-9 point scale) 1 week after treatment (Saflufenacil 100 g ai/ha, GOI AmtuPPX2L_F420L): 9 and 4 and 6 and 5 | injury (0-9 point scale) 1 week after treatment (Saflufenacil 100 g ai/ha, GOI AmtuPPX2L_F420V): 6 | injury (0-9 point scale) 1 week after treatment (Saflufenacil 100 g ai/ha, GOI AmtuPPX2L_F420V stacked with Bradi_1g07930.1_Zm): 0 and 1 (2×) and 9 and 2 (3×) | injury (0-9 point scale) 1 week after treatment (Saflufenacil 100 g ai/ha, GOI AmtuPPX2L_L397D): 9 (2×) and 4 (2×) and 6 (2×) and 5 | injury (0-9 point scale) 1 week after treatment (Saflufenacil 100 g ai/ha, GOI AmtuPPX2L_L397D_F420V): 6 (2×) and 7 and 5 (2×) and 4 and 9 | injury (0-9 point scale) 1 week after treatment (Saflufenacil 100 g ai/ha, GOI AmtuPPX2L_L397D_F420V stacked with Bradi_1g07930.1_Zm): 4 (3×) and 3 and 2 (3×) and 5 (3×) and 9 | injury (0-9 point scale) 1 week after treatment (Saflufenacil 100 g ai/ha, GOI AmtuPPX2L_R128A_F420L): 6 (2×) and 1 and 9 and 4 and 5 | injury (0-9 point scale) 1 week after treatment (Saflufenacil 100 g ai/ha, GOI AmtuPPX2L_R128A_F420V): 6 (3×) and 2 (2×) and 1 and 9 (2×) and 4 (3×) and 3 (2×) | injury (0-9 point scale) 1 week after treatment (Saflufenacil 100 g ai/ha, GOI Bradi_1g07930.1_Zm): 7 and 9 and 5 | injury (0-9 point scale) 1 week after treatment (Saflufenacil 100 g ai/ha, GOI wild type): 9 and 8 | injury (0-9 point scale) 1 week after treatment (Saflufenacil 200 g ai/ha, GOI AmtuPPX2L_R128A_F420L): 8 and 6 and 4 and 7 | injury (0-9 point scale) 1 week after treatment (Saflufenacil 200 g ai/ha, GOI AmtuPPX2L_R128A_F420V): 6 (5×) and 2 (4×) and 3 and 9 (2×) and 4 (2×) | injury (0-9 point scale) 1 week after treatment (Saflufenacil 200 g ai/ha, GOI wild type): 9
